Assay results as given in the supplement of paper PMC4604168 (melanoma cell lines).
The other results are listed elsewhere or left out. Most values come without repeats; read them as rough.

Columns and labels:
Assay in all cases: cell count relative to DMSO control; melanoma cells; higher = more viable cells
Details in all cases: library dose: low library concentration; 72 h
[1] = system: MZ2-MEL
[2] = system: MeWo
[3] = system: RPMI7951
[4] = system: RVH-421
[5] = system: SkMel28
[6] = system: SkMel2
[7] = system: SkMel30
[8] = system: UACC62
[9] = system: SkMel5
[10] = system: UACC257
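Further: cell number obtained by counting DAPI-stained nuclei in high-throughput microscope images with image analysis software, screen run in 1,536-well plates.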

SMILES: CN1CCN(c2ccc3nc(-c4c(N)c5c(F)cccc5[nH]c4=O)[nH]c3c2)CC1 [Dovitinib] + Nc1ncn([C@H]2C[C@H](O)[C@@H](CO)O2)c(=O)n1 [decitabine] (first compound 0.1 µM, partner dose 0.1 µM)
- cell count [1]: 69.9%
- cell count [2]: 88.3%
- cell count [3]: 87.4%
- cell count [4]: 98.4%
- cell count [5]: 76.9%
- cell count [6]: 99.6%
- cell count [7]: 68.7%
- cell count [8]: 62%

SMILES: CN1CCN(c2ccc3nc(-c4c(N)c5c(F)cccc5[nH]c4=O)[nH]c3c2)CC1 [Dovitinib] + Clc1ccc(Nc2nnc(Cc3ccncc3)c3ccccc23)cc1 [vatalanib] (first compound 0.1 µM, partner dose 2 µM)
- cell count [1]: 91.4%
- cell count [2]: 58.5%
- cell count [3]: 89.7%
- cell count [4]: 79.1%
- cell count [5]: 81.2%
- cell count [6]: 95.1%
- cell count [7]: 56.8%
- cell count [8]: 92.9%

SMILES: C[C@@H](Oc1cc(-c2cnn(C3CCNCC3)c2)cnc1N)c1c(Cl)ccc(F)c1Cl [Crizotinib] + COc1ccc(Cl)c(Nc2nc3ccccc3nc2NS(=O)(=O)c2cccc(NC(=O)C(C)(C)N)c2)c1 [XL147] (first compound 0.2 µM, partner dose 0.8 µM)
- cell count [1]: 98%
- cell count [2]: 89.1%
- cell count [3]: 92.5%
- cell count [4]: 75%
- cell count [5]: 88.1%
- cell count [6]: 99.9%
- cell count [7]: 93.8%
- cell count [8]: 106%

SMILES: CNC(=O)c1cc(Oc2ccc(NC(=O)Nc3ccc(Cl)c(C(F)(F)F)c3)cc2)ccn1 [sorafenib] + Cn1c(Nc2ccc(C(F)(F)F)cc2)nc2cc(Oc3ccnc(-c4ncc(C(F)(F)F)[nH]4)c3)ccc21 [CHIR265] (first compound 0.4 µM, partner dose 0.08 µM)
- cell count [1]: 97.8%
- cell count [2]: 70.8%
- cell count [3]: 63%
- cell count [4]: 75.9%
- cell count [5]: 81.6%
- cell count [6]: 78.5%
- cell count [7]: 79%
- cell count [8]: 63.5%

SMILES: C[C@@H](Oc1cc(-c2cnn(C3CCNCC3)c2)cnc1N)c1c(Cl)ccc(F)c1Cl [Crizotinib] + C#Cc1cccc(Nc2ncnc3cc(OCCOC)c(OCCOC)cc23)c1 [erlotinib] (first compound 0.2 µM, partner dose 0.8 µM)
- cell count [1]: 96.4%
- cell count [2]: 92.6%
- cell count [3]: 114%
- cell count [4]: 81.2%
- cell count [5]: 72.1%
- cell count [6]: 95.2%
- cell count [7]: 93.7%
- cell count [8]: 85.7%

SMILES: C=CCNC1=C2C[C@@H](C)C[C@H](OC)[C@H](O)[C@@H](C)/C=C(\C)[C@H](OC(N)=O)[C@@H](OC)/C=C\C=C(/C)C(=O)NC(=CC1=O)C2=O [Tanespimycin] + Cc1nc(Nc2ncc(C(=O)Nc3c(C)cccc3Cl)s2)cc(N2CCN(CCO)CC2)n1 [dasatanib] (first compound 0.002 µM, partner dose 0.004 µM)
- cell count [1]: 95.3%
- cell count [2]: 91.5%
- cell count [3]: 62.9%
- cell count [4]: 84.8%
- cell count [5]: 112%
- cell count [6]: 95.4%
- cell count [7]: 96.1%
- cell count [8]: 87.5%

SMILES: CN1CCN(c2ccc3nc(-c4c(N)c5c(F)cccc5[nH]c4=O)[nH]c3c2)CC1 [Dovitinib] + C[C@]1(c2nc3c(C(N)=O)cccc3[nH]2)CCCN1 [Veliparib] (first compound 0.1 µM, partner dose 1.4 µM)
- cell count [1]: 90.4%
- cell count [2]: 89.4%
- cell count [3]: 110%
- cell count [4]: 107%
- cell count [5]: 79.8%
- cell count [6]: 107%
- cell count [7]: 56.2%
- cell count [8]: 73.3%

SMILES: CN1CCN(c2ccc3nc(-c4c(N)c5c(F)cccc5[nH]c4=O)[nH]c3c2)CC1 [Dovitinib] + C=CCNC1=C2C[C@@H](C)C[C@H](OC)[C@H](O)[C@@H](C)/C=C(\C)[C@H](OC(N)=O)[C@@H](OC)/C=C\C=C(/C)C(=O)NC(=CC1=O)C2=O [Tanespimycin] (first compound 0.1 µM, partner dose 0.002 µM)
- cell count [1]: 97.4%
- cell count [2]: 89.5%
- cell count [3]: 105%
- cell count [4]: 119%
- cell count [5]: 82.8%
- cell count [6]: 101%
- cell count [7]: 66.4%
- cell count [8]: 96.4%

SMILES: CS(=O)(=O)CCNCc1ccc(-c2ccc3ncnc(Nc4ccc(OCc5cccc(F)c5)c(Cl)c4)c3c2)o1 [lapatinib] + Nc1ncn([C@H]2C[C@H](O)[C@@H](CO)O2)c(=O)n1 [decitabine] (first compound 0.8 µM, partner dose 0.1 µM)
- cell count [1]: 83.3%
- cell count [2]: 106%
- cell count [3]: 92.9%
- cell count [4]: 91.5%
- cell count [5]: 81.2%
- cell count [6]: 101%
- cell count [7]: 108%
- cell count [8]: 85.3%

SMILES: CS(=O)(=O)CCNCc1ccc(-c2ccc3ncnc(Nc4ccc(OCc5cccc(F)c5)c(Cl)c4)c3c2)o1 [lapatinib] + OCc1c[nH]c2ccccc12 [Indole-3-carbinol] (first compound 0.8 µM, partner dose 0.8 µM)
- cell count [1]: 90.8%
- cell count [2]: 86.4%
- cell count [3]: 79.9%
- cell count [4]: 87.5%
- cell count [5]: 68.9%
- cell count [6]: 92.6%
- cell count [7]: 82.1%
- cell count [8]: 88.8%

SMILES: CNC(=O)c1cc(Oc2ccc(NC(=O)Nc3ccc(Cl)c(C(F)(F)F)c3)cc2)ccn1 [sorafenib] + C=CCNC1=C2C[C@@H](C)C[C@H](OC)[C@H](O)[C@@H](C)/C=C(\C)[C@H](OC(N)=O)[C@@H](OC)/C=C\C=C(/C)C(=O)NC(=CC1=O)C2=O [Tanespimycin] (first compound 0.4 µM, partner dose 0.002 µM)
- cell count [1]: 93.8%
- cell count [2]: 101%
- cell count [3]: 91%
- cell count [4]: 74.9%
- cell count [5]: 90.8%
- cell count [6]: 93.1%
- cell count [7]: 102%
- cell count [8]: 96.1%

SMILES: CS(=O)(=O)CCNCc1ccc(-c2ccc3ncnc(Nc4ccc(OCc5cccc(F)c5)c(Cl)c4)c3c2)o1 [lapatinib] + C#Cc1cccc(Nc2ncnc3cc(OCCOC)c(OCCOC)cc23)c1 [erlotinib] (first compound 0.8 µM, partner dose 0.8 µM)
- cell count [1]: 90.1%
- cell count [2]: 110%
- cell count [3]: 96.6%
- cell count [4]: 143%
- cell count [5]: 80.4%
- cell count [6]: 100%
- cell count [7]: 103%
- cell count [8]: 90.3%

SMILES: C=CCNC1=C2C[C@@H](C)C[C@H](OC)[C@H](O)[C@@H](C)/C=C(\C)[C@H](OC(N)=O)[C@@H](OC)/C=C\C=C(/C)C(=O)NC(=CC1=O)C2=O [Tanespimycin] + Clc1ccc(Nc2nnc(Cc3ccncc3)c3ccccc23)cc1 [vatalanib] (first compound 0.002 µM, partner dose 2 µM)
- cell count [1]: 94.4%
- cell count [2]: 77.4%
- cell count [3]: 71.9%
- cell count [4]: 87.8%
- cell count [5]: 79.7%
- cell count [6]: 106%
- cell count [7]: 97.6%
- cell count [8]: 84.9%

SMILES: CN1CCN(c2ccc3nc(-c4c(N)c5c(F)cccc5[nH]c4=O)[nH]c3c2)CC1 [Dovitinib] + CS(=O)(=O)CCNCc1ccc(-c2ccc3ncnc(Nc4ccc(OCc5cccc(F)c5)c(Cl)c4)c3c2)o1 [lapatinib] (first compound 0.1 µM, partner dose 0.8 µM)
- cell count [1]: 84.3%
- cell count [2]: 87.2%
- cell count [3]: 98.7%
- cell count [4]: 93.4%
- cell count [5]: 74.8%
- cell count [6]: 98.8%
- cell count [7]: 61.5%
- cell count [8]: 84.8%

SMILES: C=CCNC1=C2C[C@@H](C)C[C@H](OC)[C@H](O)[C@@H](C)/C=C(\C)[C@H](OC(N)=O)[C@@H](OC)/C=C\C=C(/C)C(=O)NC(=CC1=O)C2=O [Tanespimycin] + COCC[n+]1c2c(n(Cc3cnccn3)c1C)C(=O)c1ccccc1C2=O [YM155] (first compound 0.002 µM, partner dose 0.0004 µM)
- cell count [1]: 65%
- cell count [2]: 106%
- cell count [3]: 89.1%
- cell count [4]: 91.5%
- cell count [5]: 97.8%
- cell count [6]: 92.2%
- cell count [7]: 105%
- cell count [8]: 91.3%

SMILES: CNC(=O)c1cc(Oc2ccc(NC(=O)Nc3ccc(Cl)c(C(F)(F)F)c3)cc2)ccn1 [sorafenib] + Nc1cccc2c1CN(C1CCC(=O)NC1=O)C2=O [lenalidomide] (first compound 0.4 µM, partner dose 1 µM)
- cell count [1]: 104%
- cell count [2]: 110%
- cell count [3]: 97.6%
- cell count [4]: 107%
- cell count [5]: 111%
- cell count [6]: 90%
- cell count [7]: 118%
- cell count [8]: 86.9%

SMILES: C[C@@H](Oc1cc(-c2cnn(C3CCNCC3)c2)cnc1N)c1c(Cl)ccc(F)c1Cl [Crizotinib] + CC(C)(C)c1cnc(CSc2cnc(NC(=O)C3CCNCC3)s2)o1 [SNS-032] (first compound 0.2 µM, partner dose 0.01 µM)
- cell count [1]: 100%
- cell count [2]: 93.6%
- cell count [3]: 110%
- cell count [4]: 115%
- cell count [5]: 84.2%
- cell count [6]: 94%
- cell count [7]: 83%
- cell count [9]: 95.1%
- cell count [10]: 61%
- cell count [8]: 80.6%

SMILES: C[C@@H](Oc1cc(-c2cnn(C3CCNCC3)c2)cnc1N)c1c(Cl)ccc(F)c1Cl [Crizotinib] + Clc1ccc(Nc2nnc(Cc3ccncc3)c3ccccc23)cc1 [vatalanib] (first compound 0.2 µM, partner dose 2 µM)
- cell count [1]: 102%
- cell count [2]: 92.2%
- cell count [3]: 102%
- cell count [4]: 116%
- cell count [5]: 91.5%
- cell count [6]: 101%
- cell count [7]: 101%
- cell count [8]: 116%

SMILES: C=CCNC1=C2C[C@@H](C)C[C@H](OC)[C@H](O)[C@@H](C)/C=C(\C)[C@H](OC(N)=O)[C@@H](OC)/C=C\C=C(/C)C(=O)NC(=CC1=O)C2=O [Tanespimycin] + CC1(C)NC(=O)N(c2ccc([N+](=O)[O-])c(C(F)(F)F)c2)C1=O [nilutamide] (first compound 0.002 µM, partner dose 1 µM)
- cell count [1]: 108%
- cell count [2]: 101%
- cell count [3]: 94%
- cell count [4]: 122%
- cell count [5]: 103%
- cell count [6]: 99%
- cell count [7]: 113%
- cell count [9]: 84%
- cell count [10]: 89.3%
- cell count [8]: 98.4%

SMILES: CS(=O)(=O)CCNCc1ccc(-c2ccc3ncnc(Nc4ccc(OCc5cccc(F)c5)c(Cl)c4)c3c2)o1 [lapatinib] + OCCn1cc(-c2cnc3nnn(Cc4ccc5ncccc5c4)c3n2)cn1 [PF04217903] (first compound 0.8 µM, partner dose 1 µM)
- cell count [1]: 97.7%
- cell count [2]: 101%
- cell count [3]: 103%
- cell count [4]: 101%
- cell count [5]: 93.7%
- cell count [6]: 105%
- cell count [7]: 97.9%
- cell count [9]: 93.8%
- cell count [10]: 78.2%
- cell count [8]: 91.2%

SMILES: C=CCNC1=C2C[C@@H](C)C[C@H](OC)[C@H](O)[C@@H](C)/C=C(\C)[C@H](OC(N)=O)[C@@H](OC)/C=C\C=C(/C)C(=O)NC(=CC1=O)C2=O [Tanespimycin] + OCc1c[nH]c2ccccc12 [Indole-3-carbinol] (first compound 0.002 µM, partner dose 0.8 µM)
- cell count [1]: 102%
- cell count [2]: 98.6%
- cell count [3]: 87.2%
- cell count [4]: 99.4%
- cell count [5]: 104%
- cell count [6]: 98.4%
- cell count [7]: 111%
- cell count [8]: 95.8%

SMILES: C[C@@H](Oc1cc(-c2cnn(C3CCNCC3)c2)cnc1N)c1c(Cl)ccc(F)c1Cl [Crizotinib] + C[C@]1(c2nc3c(C(N)=O)cccc3[nH]2)CCCN1 [Veliparib] (first compound 0.2 µM, partner dose 1.4 µM)
- cell count [1]: 97.3%
- cell count [2]: 89.4%
- cell count [3]: 91.6%
- cell count [4]: 107%
- cell count [5]: 86.6%
- cell count [6]: 92.9%
- cell count [7]: 76.6%
- cell count [8]: 81.4%

SMILES: C[C@@H](Oc1cc(-c2cnn(C3CCNCC3)c2)cnc1N)c1c(Cl)ccc(F)c1Cl [Crizotinib] + Cc1nc(Nc2ncc(C(=O)Nc3c(C)cccc3Cl)s2)cc(N2CCN(CCO)CC2)n1 [dasatanib] (first compound 0.2 µM, partner dose 0.004 µM)
- cell count [1]: 76.7%
- cell count [2]: 97.1%
- cell count [3]: 78%
- cell count [4]: 77.7%
- cell count [5]: 58%
- cell count [6]: 86.1%
- cell count [7]: 84.5%
- cell count [8]: 74.6%
